{"source": "PubChem BioAssay AID686978", "about": "(National Center for Advancing Translational Sciences (NCATS), 2013)", "note": "The whole screen tested about 420,000 compounds, of which about 64,000 (15%) were called active. Inconclusive results, whose numbers are uncertain, are shown with a selection of clear calls. The call rests on the fitted dose curve; in most records, active means well fitted inhibition curve with a large enough effect; inconclusive means small, poorly fitted or top-dose-only effect; inactive means flat fitted curve, though single readings scatter. Potencies of inconclusive entries are left out as doubtful fits.", "data": [{"test": "qHTS for Inhibitors of human tyrosyl-DNA phosphodiesterase 1 (TDP1): qHTS in cells in absence of CPT; further: nearly all actives have a fitted effect of over 55% in size; further: potency means the concentration at half of the fitted maximal effect; tags describe the fitted curve by direction and shape; on activity change, negative = growth inhibition: on the % scale 0 is the no-effect control and ±100 the full control effect", "conditions": "DT40 Tdp1-/- hTDP1 cells, no CPT, ATP luminescence, 48 h; activity change, negative = growth inhibition: at 46.2 µM (top of the series) unless noted", "outline": "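No-CPT arm: Tdp1-/-;hTDP1 DT40 cells (400/well) plus compounds, incubated ≥48 hr at 37 °C. Readout CellTiter-Glo luminescence.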", "values": [{"compound": "CCC1CN(C(=O)Nc2ccc(Br)cc2F)c2ccccc2S1", "note": "(stereo unspecified)", "Potency": "inconclusive [inhibitor, single point]"}, {"compound": "Cc1cc(Cl)c(S(=O)(=O)N2CCCC2)cc1OCC(N)=O", "Potency": "inactive"}, {"compound": "CCOc1ccc(OCC)c(NC(=O)CCc2nc3cccnc3n2-c2ccccc2)c1", "Potency": "inconclusive [inhibitor, single point]"}, {"compound": "COc1ccccc1N1CCN(C(=O)CSc2n[nH]c(-c3ccccc3Cl)n2)CC1", "Potency": "inconclusive [inhibitor, single point]"}, {"compound": "COc1ccc(/C=N/Nc2nc(Nc3ccccc3)nc(N3CCCC3)n2)cc1", "Potency": "inconclusive [inhibitor, single point]"}, {"compound": "CC(=O)Nc1ccc(C(=O)CSc2nccc(=O)[nH]2)cc1", "Potency": "inactive"}, {"compound": "CN(Cc1cccnc1)C(=O)c1ccc2nc(Cc3ccccc3F)oc2c1", "Potency": "inconclusive [inhibitor, single point]"}, {"compound": "C/C(=N\\NC(=O)c1nnn(-c2nonc2N)c1CN(C)c1ccccc1)c1ccc(O)cc1", "Potency": "inactive"}, {"compound": "CC(=O)Nc1ccc(NCC(O)COc2ccccc2)cc1", "note": "(stereo unspecified)", "Potency": "inconclusive [inhibitor, single point]"}, {"compound": "COc1cc(OC)cc(C(=O)Nc2ccc3nc(Nc4cccc(C(F)(F)F)c4)cc(C)c3c2)c1", "Potency": "active: 5.8 µM"}, {"compound": "COc1ccc(-c2oc3ccc(N4CCOCC4)cc3c2C#Cc2ccc(N)cc2)cc1", "Potency": "active: 6.51 µM"}, {"compound": "COc1ccc(C(=O)N(C)CCOc2ccc(Cl)cc2)cc1S(=O)(=O)N1CCCC1", "Potency": "inconclusive [inhibitor, single point]"}, {"compound": "COc1ccc(N2C(=O)/C(=C/c3ccc([N+](=O)[O-])cc3)C=C2c2ccccc2)cc1", "Potency": "active: 2.91 µM"}, {"compound": "COC(=O)c1ccc(CNC(=O)c2cc(COc3cncc(Cl)c3)on2)cc1", "Potency": "inconclusive [inhibitor, partial curve]"}, {"compound": "O=C(Oc1ccc(Cl)c2cccnc12)c1cccc([N+](=O)[O-])c1", "Potency": "active: 0.92 µM"}, {"compound": "COc1ccc(C(C)(C)C)cc1NC(=O)c1cncc(Br)c1", "Potency": "active: 18.4 µM"}, {"compound": "Cc1ccccc1CS(=O)(=O)CCC(=O)NCCN1CCN(c2cccc(Cl)c2)CC1", "Potency": "active: 14.6 µM"}, {"compound": "c1ccc2c(c1)nc1n2CCC1", "Potency": "inactive"}, {"compound": "CCc1nc2c(OCc3ccc(C(F)(F)F)cc3)cccn2c1N(C=O)Cc1ccc(OC)cc1", "Potency": "active: 16.4 µM"}, {"compound": "CC1CCCCC1NC(=O)CN1c2cccc3cccc(c23)S1(=O)=O", "note": "(stereo unspecified)", "Potency": "inconclusive [inhibitor, single point]"}, {"compound": "CCC(C(=O)NCc1ccccc1)n1c(CSCCOc2ccccc2)nc2ccccc21", "note": "(stereo unspecified)", "Potency": "inconclusive [inhibitor, single point]"}, {"compound": "O=C(NCc1ccc(F)cc1)c1cnc(N2CCCCC2)c2ccccc12", "Potency": "inconclusive [inhibitor, single point]"}, {"compound": "O=C(CCCn1c(=S)[nH]c2cc3c(cc2c1=O)OCO3)NCCc1ccccc1Cl", "Potency": "inactive"}, {"compound": "COc1cccc(CN(Cc2cccnc2)S(=O)(=O)c2ccc(-n3cnnn3)c(C)c2)c1", "Potency": "inconclusive [inhibitor, partial curve]"}, {"compound": "Cc1ncc(CN2CCCC(C(=O)Nc3ccc(-c4ccco4)cc3)C2)cn1", "note": "(stereo unspecified)", "Potency": "inactive"}, {"compound": "C#CCn1c(C2CC(=O)N(c3ccc(OCC)cc3)C2)nc2ccccc21", "note": "(stereo unspecified)", "Potency": "inconclusive [inhibitor, full curve, poor fit]"}, {"compound": "Cn1c(CSCC(=O)Nc2ccccc2)nnc1SCc1ccccc1", "Potency": "inactive"}, {"compound": "COc1ccc(Nc2cc(=O)n(-c3ccccc3)c3c2c(=O)n(C)c(=O)n3C)cc1", "Potency": "inactive"}, {"compound": "COC(=O)[C@H](C)N1C/C=C\\COc2c(Cl)cc(Cl)cc2S1(=O)=O", "Potency": "inconclusive [inhibitor, single point]"}, {"compound": "CCOC(=O)N1CCC(NC(=O)CSCc2nc(-c3ccccc3Cl)oc2C)CC1", "Potency": "inconclusive [inhibitor, single point]"}, {"compound": "CCN1CCN(C(=O)NS(=O)(=O)c2ccc(C)cc2)CC1", "Potency": "inactive"}, {"compound": "COc1ccc(N2CCN(c3ncnc4onc(-c5ccc(F)cc5)c34)CC2)cc1", "Potency": "inconclusive [inhibitor, single point]"}, {"compound": "Nc1ccccc1C(O)(Cc1ccccc1)c1ccccc1", "note": "(stereo unspecified)", "activity change, negative = growth inhibition": "inconclusive: -31.1% [inhibitor]"}, {"compound": "CCCN(CC1CCCO1)C(=O)c1cc(COc2cccc(OC)c2)on1", "note": "(stereo unspecified)", "Potency": "inconclusive [inhibitor, single point]"}, {"compound": "COc1cc(/C=C/c2c([N+](=O)[O-])c(=O)n(C)c(=O)n2C)cc(OC)c1OC", "Potency": "inconclusive [inhibitor, partial curve]"}, {"compound": "COc1ccc(NC(=O)CSc2nc(C)cs2)cc1", "Potency": "inactive"}, {"compound": "C=C1/C(=C\\C=C2/CCC[C@]3(C)[C@@H]([C@H](C)OCCC(C)(C)O)CC[C@@H]23)C[C@@H](O)C[C@@H]1O", "Potency": "inconclusive [inhibitor, partial curve, poor fit]"}, {"compound": "Cc1cccc(NC(=O)c2ccc(F)c(S(=O)(=O)N3CCC4(CC3)OCCO4)c2)c1", "Potency": "inconclusive [inhibitor, partial curve]"}, {"compound": "N#Cc1nc(-c2ccccc2)oc1N1CCN(C(=O)c2ccco2)CC1", "Potency": "inconclusive [inhibitor, single point]"}, {"compound": "COc1cc(OC)cc(C(=O)NNC(=O)c2ccc3ccccc3n2)c1", "Potency": "active: 5.17 µM"}, {"compound": "COc1cc2c(cc1OC)CN(Cc1ccccc1)CC2", "Potency": "inactive"}, {"compound": "C/C(=N\\NC(=O)CNC(=O)c1ccncc1)c1ccc(C)cc1", "Potency": "inactive"}, {"compound": "COc1ccc(N(CC(=O)NCc2ccc(Cl)cc2)S(=O)(=O)c2ccccc2[N+](=O)[O-])c(OC)c1", "Potency": "inconclusive [inhibitor, single point]"}, {"compound": "CC(=O)Nc1ccc(S(=O)(=O)NCc2cc(=O)n(C)c(=O)n2C)cc1", "Potency": "inactive"}, {"compound": "Cc1ccc(Cl)cc1N1CCN(S(=O)(=O)c2ccc3[nH]c(=O)ccc3c2)CC1", "Potency": "inconclusive [inhibitor, single point]"}, {"compound": "Cc1cccc(NC(=O)CN(C)C(=O)C2CCCC2)c1C", "Potency": "inactive"}]}]}
